Results as given in paper PMC4336329 (PLoS ONE, 2015).
About 14,000 (4.5%) of roughly 310,000 compounds showed an effect of 50% or more. The effect is printed as a negative number. This is one part of the list.

The molecules below were run against human ether-à-go-go-related gene (hERG) potassium channel (human, UniProt Q12809) (assay: primary screen, population patch clamp on CHO cells stably expressing hERG).
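Note: peak tail current of the secondary pulse compared with the same well before compound.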

Chain of human ether-à-go-go-related gene (hERG) potassium channel (Q12809 whole entry, looked up): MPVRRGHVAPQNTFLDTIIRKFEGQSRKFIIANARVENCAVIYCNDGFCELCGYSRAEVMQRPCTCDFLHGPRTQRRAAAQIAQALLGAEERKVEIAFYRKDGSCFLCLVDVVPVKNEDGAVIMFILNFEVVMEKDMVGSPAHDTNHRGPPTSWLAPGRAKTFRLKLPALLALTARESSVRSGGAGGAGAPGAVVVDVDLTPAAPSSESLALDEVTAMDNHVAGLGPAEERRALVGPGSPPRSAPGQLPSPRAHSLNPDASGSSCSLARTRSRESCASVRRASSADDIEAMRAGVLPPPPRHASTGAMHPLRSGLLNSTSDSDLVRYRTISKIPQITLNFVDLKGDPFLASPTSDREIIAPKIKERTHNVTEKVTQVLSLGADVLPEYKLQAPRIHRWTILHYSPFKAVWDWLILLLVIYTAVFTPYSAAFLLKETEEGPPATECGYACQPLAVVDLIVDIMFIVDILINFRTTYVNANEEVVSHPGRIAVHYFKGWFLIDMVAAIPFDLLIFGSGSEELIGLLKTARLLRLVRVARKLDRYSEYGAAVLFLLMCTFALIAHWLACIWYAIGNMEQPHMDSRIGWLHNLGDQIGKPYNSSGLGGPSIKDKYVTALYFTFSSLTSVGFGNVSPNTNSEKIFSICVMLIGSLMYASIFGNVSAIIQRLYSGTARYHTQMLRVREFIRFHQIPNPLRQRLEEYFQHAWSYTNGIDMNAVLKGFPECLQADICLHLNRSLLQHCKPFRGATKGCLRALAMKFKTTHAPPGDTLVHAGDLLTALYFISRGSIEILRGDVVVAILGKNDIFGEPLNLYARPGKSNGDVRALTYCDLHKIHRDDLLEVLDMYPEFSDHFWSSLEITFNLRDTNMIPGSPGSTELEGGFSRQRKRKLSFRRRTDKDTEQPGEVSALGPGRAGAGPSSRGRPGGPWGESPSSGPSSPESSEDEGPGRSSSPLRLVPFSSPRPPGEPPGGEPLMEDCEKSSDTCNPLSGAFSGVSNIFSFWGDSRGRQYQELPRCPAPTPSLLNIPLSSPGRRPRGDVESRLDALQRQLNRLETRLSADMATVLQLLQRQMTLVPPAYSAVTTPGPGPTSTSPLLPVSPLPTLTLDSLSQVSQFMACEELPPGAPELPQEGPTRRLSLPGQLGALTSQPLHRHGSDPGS

SMILES	hERG current change (%, negative = inhibition) at 10uM [%]
CCOC(=O)c1sc(=S)n(-c2ccccc2OC)c1N	13.2
Br.CCCCn1c(=N)n(CC(=O)C(C)(C)C)c2ccccc21	-55
CC(Oc1ccc(Br)cc1)C(=O)NCC1(N2CCCCC2)CCCCC1 (centres unmarked)	-23.1
COc1ccccc1-n1c(=O)[nH]c2c(C(N)=O)nc(C3CCCCC3)nc21	-11.7
O=C(Cn1cncn1)c1ccccc1	2.88
CN(CC(=O)Nc1ccc(F)cc1)CC(=O)N(C)C1(C#N)CCCCC1	-33.5
CCOc1ccc(/C=C2/C(=O)N(c3ccc(OC)cc3)C(=S)N2CC(=O)OC)cc1OCC	10.8
CC(C)CCNCC(O)CON=C1c2ccccc2-c2ccccc21 (centres unmarked)	-32.2
NC(C(=O)O)c1cc(=O)[nH]o1 (centres unmarked)	13.4
CCOc1ccc(N(CC(=O)NN=C2CCN(C)CC2)S(=O)(=O)c2ccc(Br)cc2)cc1	-13.5
COc1ccc(-c2csc(NC(=O)C3CC(=O)N(Cc4ccccc4)C3)n2)cc1OC (centres unmarked)	1.78
Cc1ccc2c(c1)NC(=O)C(CC(=O)NC1CCCCC1C)O2 (centres unmarked)	-8.23
CCOC(=O)c1sc(NC(=O)Nc2cccc(Cl)c2)cc1C	-4.89
CC(C)(Cc1ccc(O)cc1)NC(=O)CC(=O)N=Nc1c(O)[nH]c2ccc(Br)cc12	19.5
CC(C)CCN1CCN(Cc2ccc3nsnc3c2)CC1CCO (centres unmarked)	-42.6
O=C(CSc1nccn(-c2cccc(F)c2)c1=O)Nc1ccc(Cl)cc1F	3.31
CCN(CC)CCC(=O)NN	26.5
O=C1Nc2ccc([N+](=O)[O-])cc2C1(O)N1CCCCCC1 (centres unmarked)	-25.1
O=C(/C=C/c1cc([N+](=O)[O-])ccc1OC(F)F)Nc1ccc(OC(F)F)cc1	14.5
COC(=O)c1cc(C(=O)NCCN2C(=O)S/C(=C\c3cccs3)C2=O)cc([N+](=O)[O-])c1	-19.8
CCCCN(C(=O)NC(=O)Nc1ccccc1OCC)S(C)(=O)=O	6.01
O=C(O)c1ccc(NC(=O)C2(c3ccccc3)CCOCC2)cc1	-5.57

SMILES	hERG current change (%, negative = inhibition) at 10uM [%]
O=C(O)/C(=C\c1ccc(Br)cc1)NC(=O)c1cccs1	15.9
O=C(CCC(=O)Nc1ccc(Cl)cc1)N/N=C/c1ccc2c(c1)OCO2	13.4
O=C1c2ccccc2S(=O)(=O)c2cc(N3CCOCC3)ccc21.O=C1c2ccccc2S(=O)(=O)c2cc(N3CCOCC3)ccc21	4.53
CC12CCC(C(=O)N(Cc3ccccc3)Cc3ccccc3)(OC1=O)C2(C)C (centres unmarked)	-2.2
C=CCn1c(COc2cccc3ccc(C)nc23)nnc1SCC(=O)OC	-0.175
O=NN1CCN(c2ccncc2S(=O)(=O)N2CCCCC2)CC1	10.6
CCN1CCN(CCCOc2ccc(-c3ccccc3)cc2)CC1	-71.9
COc1ccc2c3c1OC1CC(O)C=CC31CCN(C)C2.I (centres unmarked)	16.2
COc1ccccc1S(=O)(=O)Cc1ccc(C(=O)N2CCN(c3ccccn3)CC2)o1	-17.8
CCCC(C)C(=O)Nc1ccc(Cl)cn1 (centres unmarked)	-7.45
CC(=O)C(N=Nc1ccccc1)(Sc1nnc(-c2ccccc2)n1-c1ccccc1)C(C)=O	0.72
Cc1cc(-c2csc(NC(=O)c3ccc(C#N)cc3)n2)c(C)n1Cc1ccco1	19.8
COc1cc(OC)cc(C(=O)NCCSc2c[nH]c3ccccc23)c1	-17.1
COc1ccccc1CN1CCN(Cc2cc(OC)c(OC)cc2OC)CC1.O=C(O)C(=O)O	-11.2
Cc1ccc(NC(=O)Cn2c(=O)cnc3ccccc32)cc1S(=O)(=O)N1CCCCC1	-50.8
O=S(=O)(O)c1nc2ccccc2n1CCOc1ccccc1	8.24
O=S(=O)(c1ccc(OCC(O)CN2CCCCC2)cc1)N1CCOCC1 (centres unmarked)	18.8
Cc1ccc(C(=O)N(c2ccccn2)C(C)c2ccco2)cc1C (centres unmarked)	-10
O=C(O)COc1cnc2ccccc2n1	15.6
CC(NC(=O)Cc1cccs1)C(c1cccs1)N1CCN(c2ccccc2F)CC1 (centres unmarked)	-13.6
Cc1ccc(S(=O)(=O)CC(=O)N2CC(C)OC(C)C2)cc1 (centres unmarked)	12.5
S=C(Nc1ccccc1Cl)N1CCCCC1	24.2
